Data reported in patent US20180177860A1, “VACCINE […] I[…] GREEN TEA EXTRACT, AND PREPARATION METHOD THEREFOR” (priority 2015, published 2018).

Biological target: T1, Hemagglutinin (HA) of A/Puerto Rico/8/34(H1N1) virus (Influenza A virus, UniProt P03452)
T1 construct: host or cells: human cells
Test: SDS-PAGE of hemagglutinin reacted with EGCG
Conditions: 100 μg/10 μl EGCG, 2 μg/10 μl hemagglutinin, room temperature 2 hours

(−)-epigallocatechin gallate [EGCG]
molecular weight / band size of hemagglutinin: increased the molecular weight of the protein
